{"source": "ChEMBL document CHEMBL4888484", "about": "“Replenishing the malaria drug discovery pipeline: Screening and hit evaluation of the MMV Hit Generation Library 1 (HGL1) against asexual blood stage Plasmodium falciparum ,using a nano luciferase reporter read-out” (2022)", "note": "The campaign covered roughly 150,000 compounds. About 540 (0.36%) showed an effect of 50% or more. The list shows a part of the results.", "data": [{"tested_on": "Plasmodium falciparum", "test": "Primary screen in NF54 nanoGlo assay, in single point, at 2uM, 72h; a lower Z score goes with more inhibition", "assay_type": "functional, Erythrocyte", "conditions": "timepoint 72 hour", "units": {"% Inhibition": "%"}, "values": [{"smiles": "O=C(NCc1ccncc1)C1Cc2cc(C(F)(F)F)ccc2N2CCN(Cc3ccc(F)cc3)CC12", "note": "(stereo not given)", "% Inhibition": -4, "Z score": 0.58}, {"smiles": "COc1ccccc1C1CN2C(=O)N(c3ccc(Cl)cc3Cl)C(=O)[C@]2(C)c2[nH]c3ccccc3c21", "note": "(stereo not given in full)", "% Inhibition": -13, "Z score": 1.68}, {"smiles": "O=C(N[C@H](c1cccs1)C1CCOCC1)c1ccc(Oc2nccs2)cc1", "% Inhibition": -15, "Z score": 2.22}, {"smiles": "O=C(NCCNC(=O)C1(c2ccc(F)cc2)CCC1)c1cnccn1", "% Inhibition": 2, "Z score": -0.34}, {"smiles": "C[C@H](NCC1(N(C)C)CCOCC1)C(F)(F)c1ccccc1", "% Inhibition": -8, "Z score": 0.96}, {"smiles": "Nc1cccc2c1NC(c1ccc(Cl)cc1)C1CCCC21", "note": "(stereo not given)", "% Inhibition": -4, "Z score": 0.51}, {"smiles": "O=C(c1ccc(Cl)c(F)c1)N1C[C@@H](CN2CCCCC2)[C@@H](CO)C1", "% Inhibition": 5, "Z score": -0.81}, {"smiles": "O=C(Nc1ccc(F)cn1)N1CCN([C@@H](CO)c2ccc(Cl)cc2)CC1", "% Inhibition": -7, "Z score": 1.4}, {"smiles": "Cc1nc(C)c(C(=O)N[C@@H](CC(C)C)c2nc(-c3nnc[nH]3)no2)o1", "% Inhibition": 12, "Z score": -1.34}, {"smiles": "c1csc(CCN2CCc3nn[nH]c3C2)c1", "% Inhibition": 1, "Z score": -0.2}, {"smiles": "CC(C)[C@H](CCO)Nc1cccc(F)c1C#N", "% Inhibition": 1, "Z score": -0.25}, {"smiles": "Cc1noc(C)c1C(=O)N[C@H](c1ccccc1)c1cc2ccccc2o1", "% Inhibition": 3, "Z score": -0.57}, {"smiles": "CN(CCC#N)S(=O)(=O)N1CC[C@H](Cc2ccncc2)C1", "% Inhibition": -5, "Z score": 0.57}, {"smiles": "Cc1cc(Cl)ccc1NC(=O)Cc1nnc(-c2cnccn2)o1", "% Inhibition": -15, "Z score": 1.5}, {"smiles": "Cc1cc(C)c(S(=O)(=O)N2CC[C@H](n3cccn3)C2)s1", "% Inhibition": -1, "Z score": 0.1}, {"smiles": "COc1cc(OC)c(OC)cc1CN1CC(=O)N(C)C2(CCOCC2)C1", "% Inhibition": -4, "Z score": 0.6}, {"smiles": "O=C(NCc1cccs1)N1CCN(c2cnsn2)CC1", "% Inhibition": -8, "Z score": 0.98}, {"smiles": "COc1cncc(O[C@H]2CCCN(C(=O)Cc3cccs3)C2)n1", "% Inhibition": 18, "Z score": -3}, {"smiles": "C[C@H](NC(=O)c1ccoc1C1CC1)c1nccs1", "% Inhibition": -11, "Z score": 1.47}, {"smiles": "O=C(NCc1cccnc1-c1cccnc1)c1cccc(Cl)c1", "% Inhibition": -1, "Z score": 0.19}, {"smiles": "CCc1nnc2ccc(N[C@H]3CC[C@@H](C(=O)N4CCCC4)C3)nn12", "% Inhibition": -5, "Z score": 0.57}, {"smiles": "CCOC[C@H]1CCCN(C(=O)c2cnn3cccc(OC)c23)C1", "% Inhibition": -7, "Z score": 0.69}, {"smiles": "Cc1ncc(C(C)C)c(NCC2(CO)CCCC2)n1", "% Inhibition": -6, "Z score": 1.12}, {"smiles": "O=C(Nc1cccc(-c2ccccc2)c1)N1CCC(C(=O)N2CCCC2)CC1", "% Inhibition": 3, "Z score": -0.26}, {"smiles": "COc1nn(C)cc1C(=O)Nc1nnc(-c2csc(C)n2)o1", "% Inhibition": -21, "Z score": 3.09}, {"smiles": "OC(COc1ccccc1)CN1CCN(CC2CCCCO2)CC1", "note": "(stereo not given)", "% Inhibition": -2, "Z score": 0.18}, {"smiles": "CCn1ncc(CN(C)Cc2scnc2C)c1C", "% Inhibition": -8, "Z score": 1.06}, {"smiles": "CN1CC(NC(=O)C2CCS(=O)(=O)C2)Cc2ccccc21", "note": "(stereo not given)", "% Inhibition": -14, "Z score": 1.34}, {"smiles": "CNC(=O)[C@@H]1C[C@H](Oc2ccccc2)CN1C1CCN(Cc2cn(C)c3ccccc23)CC1", "% Inhibition": -10, "Z score": 1.15}, {"smiles": "CCOC(=O)c1nc(NC(=O)NCCF)sc1C(F)(F)F", "% Inhibition": -4, "Z score": 0.46}, {"smiles": "CC(C)(C)CC(=O)N1CCC[C@H](OCc2ccccc2F)C1", "% Inhibition": -8, "Z score": 0.82}, {"smiles": "CN(C)c1ccc(CNc2sc3c(c2C#N)CCCCCCCCCC3)cc1", "% Inhibition": 9, "Z score": -1.14}, {"smiles": "Cc1n[nH]c(C)c1CN(C)c1ccccc1", "% Inhibition": -4, "Z score": 0.39}, {"smiles": "C#CCCCCC(=O)NC1CCCCC1", "% Inhibition": -9, "Z score": 1.1}, {"smiles": "COCc1nc(-c2nc3c([nH]2)C[C@H](c2cccc(OC)c2)CNC3=O)no1", "% Inhibition": -9, "Z score": 1.16}, {"smiles": "CC(C)(C#N)CCCNc1ccccc1C(=O)NCC(F)(F)F", "% Inhibition": -8, "Z score": 1.4}, {"smiles": "CC(=O)N(CCNC(=O)c1noc(C)c1Cn1cccn1)C1CCOCC1", "% Inhibition": -6, "Z score": 1.05}, {"smiles": "O=C(C1CCN(c2ccc3c(Cl)ccc(Cl)c3n2)CC1)N1CCOCC1", "% Inhibition": -13, "Z score": 1.33}, {"smiles": "CCN(Cc1ccccc1)C1=NS(=O)(=O)C(c2ccc(F)cc2)=C1C", "% Inhibition": -6, "Z score": 0.8}, {"smiles": "CCC(CC)(CCO)CNC(=O)Nc1ccccc1", "% Inhibition": -3, "Z score": 0.35}, {"smiles": "Cc1ccncc1NC(=O)CCCNC(=O)OC(C)(C)C", "% Inhibition": -3, "Z score": 0.24}, {"smiles": "CCCc1cc(C(=O)N(CC)[C@@H](C)Cc2ccsc2)[nH]n1", "% Inhibition": 12, "Z score": -1.39}, {"smiles": "COc1ccc(-c2cc(-c3cn(CCO)nc3C)c(C#N)c(N)n2)cc1F", "% Inhibition": -11, "Z score": 1.63}, {"smiles": "CCCc1cnc(C)nc1N1CCC(N2CCN(c3ccccn3)CC2)CC1", "% Inhibition": 6, "Z score": -0.85}, {"smiles": "C[C@H]1CN(c2ccc(C#N)cn2)C[C@]1(O)C1CC1", "% Inhibition": 3, "Z score": -0.65}, {"smiles": "Cc1ccsc1[C@@H]1CCCCCN1S(=O)(=O)Cc1ccccc1", "% Inhibition": 2, "Z score": -0.45}, {"smiles": "O=C1C[C@H](CNS(=O)(=O)CC2CCCC2)CN1C1CC1", "% Inhibition": -1, "Z score": 0.17}, {"smiles": "Cc1nc2cc(CCc3c(C)n[nH]c3C)ccc2o1", "% Inhibition": 0, "Z score": 0.03}, {"smiles": "CC(=O)N1CCc2cc(S(=O)(=O)N3CCC(CC(=O)Nc4cccc(C)c4C)CC3)ccc21", "% Inhibition": -6, "Z score": 0.57}, {"smiles": "CC(C)(C)OC(=O)N1CC2CCC1C(C(=O)O)C2", "note": "(stereo not given)", "% Inhibition": 0, "Z score": -0.04}, {"smiles": "Cn1ccc(C(=O)N2CCNC(=O)C[C@H]2c2ccccc2)cc1=O", "% Inhibition": -7, "Z score": 0.92}, {"smiles": "CCc1cc(C(=O)N2CCN(CC(C)C)CC2)nc2cc(-c3ccccn3)nn12", "% Inhibition": -10, "Z score": 1.35}, {"smiles": "O=C(Cc1ccccc1F)Nc1cc(-c2ccsc2)no1", "% Inhibition": -4, "Z score": 0.37}, {"smiles": "Cn1nc(-c2nnc3n2CC(C)(C)CC3)c2ccccc2c1=O", "% Inhibition": -4, "Z score": 0.53}, {"smiles": "CC(NC(=O)C(C)S(=O)(=O)C(C)C)c1ccc(OC(F)F)cc1", "note": "(stereo not given)", "% Inhibition": -8, "Z score": 1.27}]}]}
